The record followed here is the supplement of paper PMC4604168 (melanoma cell lines).

Each structure is given as a SMILES string. This is one part of the list. Most values come without repeats; read them as rough.
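Note: cell number obtained by counting DAPI-stained nuclei in high-throughput microscope images with image analysis software, screen run in 1,536-well plates.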

The first assay deals with A101D. Nature of the assay: cell count relative to DMSO control; melanoma cells; higher = more viable cells. The note with it: library dose: low library concentration; 72 h.
For `Nc1nc(F)nc2c1ncn2[C@@H]1O[C@H](CO)[C@@H](O)[C@@H]1O` [fludarabine] + NCC(=O)Nc1ccc(-n2nc(C(F)(F)F)cc2-c2ccc3c(ccc4ccccc43)c2)cc1 [OSU03012] (first compound 0.2 µM, partner dose 1 µM), the cell count is 89.9%. Still for that read-out and setting: for `Nc1ccn([C@@H]2O[C@H](CO)[C@@H](O)C2(F)F)c(=O)n1` [gemcitabine] + COc1cc(Nc2ncc(F)c(Nc3ccc4c(n3)NC(=O)C(C)(C)O4)n2)cc(OC)c1OC [Tamatinib] (first compound 0.0004 µM, partner dose 0.4 µM) the value was 87.5%; for `Nc1nc(F)nc2c1ncn2[C@@H]1O[C@H](CO)[C@@H](O)[C@@H]1O` [fludarabine] + COc1cc(N2CCC(N3CCN(C)CC3)CC2)ccc1Nc1ncc(Cl)c(Nc2ccccc2S(=O)(=O)C(C)C)n1 [NVP-TAE684] (first compound 0.2 µM, partner dose 0.08 µM), 91.2%. Still for that read-out and setting: for `Nc1ncn([C@H]2C[C@H](O)[C@@H](CO)O2)c(=O)n1` [decitabine] + COc1cc(Nc2ncc(F)c(Nc3ccc4c(n3)NC(=O)C(C)(C)O4)n2)cc(OC)c1OC [Tamatinib] (first compound 0.1 µM, partner dose 0.4 µM) the value was 88.7%. Compound `Nc1ccn([C@@H]2O[C@H](CO)[C@@H](O)C2(F)F)c(=O)n1` [gemcitabine] + Cc1ccc(NC(=O)c2cccc(N(C)C)c2)cc1NC(=O)c1ccc(O)cc1 [ZM336372] (first compound 0.0004 µM, partner dose 2 µM) returned a cell count of 103%. Compound `Nc1ncn([C@H]2C[C@H](O)[C@@H](CO)O2)c(=O)n1` [decitabine] + NCC(=O)Nc1ccc(-n2nc(C(F)(F)F)cc2-c2ccc3c(ccc4ccccc43)c2)cc1 [OSU03012] (first compound 0.1 µM, partner dose 1 µM) came in with a cell count of 96.2%.

For the next assay, the system named is A2058. The assay is described as above. The settings on record: library dose: low library concentration; 72 h.
`Nc1ncn([C@H]2C[C@H](O)[C@@H](CO)O2)c(=O)n1` [decitabine] + CC(C)CCN1c2nc(Nc3cc(F)c(O)c(F)c3)ncc2N(C)C(=O)C1C [BID1870] (first compound 0.1 µM, partner dose 0.2 µM) came in with a cell count of 81.7%. On the same count and under the same terms, for `Nc1ccn([C@@H]2O[C@H](CO)[C@@H](O)C2(F)F)c(=O)n1` [gemcitabine] + CC(C)CCN1c2nc(Nc3cc(F)c(O)c(F)c3)ncc2N(C)C(=O)C1C [BID1870] (first compound 0.0004 µM, partner dose 0.2 µM) the value was 93.5%; for `Nc1ncn([C@H]2C[C@H](O)[C@@H](CO)O2)c(=O)n1` [decitabine] + CC1(C)NC(=O)N(c2ccc([N+](=O)[O-])c(C(F)(F)F)c2)C1=O [nilutamide] (first compound 0.1 µM, partner dose 1 µM), 80%. `CC(=O)O[C@@]12CO[C@@H]1C[C@H](O)[C@@]1(C)C(=O)[C@H](O)C3=C(C)[C@@H](OC(=O)[C@H](O)[C@@H](NC(=O)OC(C)(C)C)c4ccccc4)C[C@@](O)([C@@H](OC(=O)c4ccccc4)[C@H]21)C3(C)C` [Docetaxel] + CCc1ccc(CCOc2ccc(CC3SC(=O)NC3=O)cc2)nc1 [pioglitazone] (first compound 0.0001 µM, partner dose 2 µM) gave a cell count of 15.9%. As to `Nc1ncn([C@H]2C[C@H](O)[C@@H](CO)O2)c(=O)n1` [decitabine] + Cc1cc(N2CCOCC2)cc2[nH]c(-c3c(NC[C@@H](O)c4cccc(Cl)c4)cc[nH]c3=O)nc12 [BMS536924] (first compound 0.1 µM, partner dose 0.2 µM), the cell count came out at 91.7%.

Compound `Nc1ncn([C@H]2C[C@H](O)[C@@H](CO)O2)c(=O)n1` [decitabine] + O=S(=O)(c1ccccc1)N(CC(F)(F)F)c1ccc(C(O)(C(F)(F)F)C(F)(F)F)cc1 [T0901317] (first compound 0.1 µM, partner dose 1.4 µM) registered a cell count of 91.4%. On the same count and under the same terms, for `Nc1ncn([C@H]2C[C@H](O)[C@@H](CO)O2)c(=O)n1` [decitabine] + COc1cc(N2CCC(N3CCN(C)CC3)CC2)ccc1Nc1ncc(Cl)c(Nc2ccccc2S(=O)(=O)C(C)C)n1 [NVP-TAE684] (first compound 0.1 µM, partner dose 0.08 µM) the value was 78.3%.
